Assay results: paper PMC4336329 (PLoS ONE, 2015)
The campaign covered roughly 310,000 compounds. About 2,200 (0.71%) showed an effect of 50% or more. The effect is printed as a negative number. The list shows a part of the results.

These compounds were tested against human ether-à-go-go-related gene (hERG) potassium channel (human, UniProt Q12809) (assay: primary screen, population patch clamp on CHO cells stably expressing hERG).
Chain of human ether-à-go-go-related gene (hERG) potassium channel (Q12809 whole entry, looked up): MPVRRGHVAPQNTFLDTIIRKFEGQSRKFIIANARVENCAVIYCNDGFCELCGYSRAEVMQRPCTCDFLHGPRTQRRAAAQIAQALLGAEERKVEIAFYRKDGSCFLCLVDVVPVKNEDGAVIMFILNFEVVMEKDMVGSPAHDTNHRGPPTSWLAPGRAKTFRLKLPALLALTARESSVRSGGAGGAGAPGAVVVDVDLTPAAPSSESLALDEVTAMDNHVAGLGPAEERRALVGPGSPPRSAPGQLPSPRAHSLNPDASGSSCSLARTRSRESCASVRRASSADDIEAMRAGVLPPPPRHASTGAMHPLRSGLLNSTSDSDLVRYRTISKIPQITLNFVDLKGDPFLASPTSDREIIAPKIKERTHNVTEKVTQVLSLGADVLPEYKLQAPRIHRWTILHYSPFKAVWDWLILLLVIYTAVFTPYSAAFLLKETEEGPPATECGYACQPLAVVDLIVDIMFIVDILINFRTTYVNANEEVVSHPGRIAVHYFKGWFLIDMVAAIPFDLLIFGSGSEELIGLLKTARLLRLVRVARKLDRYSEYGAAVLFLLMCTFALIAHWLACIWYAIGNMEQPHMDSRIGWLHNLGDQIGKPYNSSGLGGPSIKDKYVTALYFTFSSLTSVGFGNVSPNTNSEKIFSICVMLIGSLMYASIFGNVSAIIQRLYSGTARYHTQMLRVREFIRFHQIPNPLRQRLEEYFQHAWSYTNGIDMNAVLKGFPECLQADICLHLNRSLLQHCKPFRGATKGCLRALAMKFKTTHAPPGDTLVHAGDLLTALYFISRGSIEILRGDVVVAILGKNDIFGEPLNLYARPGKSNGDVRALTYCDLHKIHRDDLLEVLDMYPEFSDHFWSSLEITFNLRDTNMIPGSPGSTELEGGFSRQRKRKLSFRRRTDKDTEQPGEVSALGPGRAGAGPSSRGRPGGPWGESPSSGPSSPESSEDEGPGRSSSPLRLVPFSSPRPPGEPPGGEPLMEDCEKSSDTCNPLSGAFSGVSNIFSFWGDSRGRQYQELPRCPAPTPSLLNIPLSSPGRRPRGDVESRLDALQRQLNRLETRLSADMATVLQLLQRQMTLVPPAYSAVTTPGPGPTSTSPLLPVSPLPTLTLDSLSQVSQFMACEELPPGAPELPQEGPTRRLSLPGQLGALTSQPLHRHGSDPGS

Row | Compound | hERG current change (%, negative = inhibition) at 1uM
1 | Cc1cccc(OCC(O)CN2CCN(S(=O)(=O)c3ccc(C)cc3C)CC2)c1 (stereo not shown) | 2.67%
2 | COc1ccc(-n2ncc3c(NCC4CCCO4)ncnc32)cc1 (stereo not shown) | 28.8%
3 | CCC(=O)NCCC(c1ccco1)c1ccccc1OC (stereo not shown) | 13.9%
4 | CCn1c(NCc2ccccc2NS(=O)(=O)c2ccc(C)cc2)nc2ccccc21 | 8.36%
5 | Cc1ccccc1COc1ccc(-c2nn[nH]n2)cc1 | 9.57%
6 | CCCN(CC(=O)Nc1ccccc1C)C(=O)Cc1c(C)nc2ccccc2c1C | -39.3%
7 | CN(C)C(CNC(=O)c1cc(S(=O)(=O)N(C)c2ccccc2)ccc1Cl)c1ccccc1 (stereo not shown) | 3.7%
8 | COC(=O)CCc1c(C)[nH]c(=S)[nH]c1=O | 6.53%
9 | O=C1CC(c2c(F)cccc2Cl)C2=C(COC2=O)N1 (stereo not shown) | 0.238%
10 | COc1ccc(C2C(C#N)=C(N)Oc3cc(O)ccc32)cc1Cl (stereo not shown) | 11.4%
11 | CCOc1cc(/C=C2\C(=O)N(CCc3ccc(OC)c(OC)c3)C(C)=C2C(=O)OC)ccc1O | 16.8%
12 | Cc1ccc(OCC(=O)Nc2nc(-c3ccccn3)cs2)c(C)c1 | 8.87%
13 | CC(C)Cc1nc(C#N)c(N2CCC(C(N)=O)CC2)o1 | 9.71%
14 | Cc1cc(NC2CCCCC2)nc(NCc2ccccc2)n1 | -2.46%
15 | Cc1ccc(S(=O)(=O)NC(C)C(c2cccs2)N2CCOCC2)cc1 (stereo not shown) | 7.31%
16 | Cc1ccc(NC(=O)CN2CCc3ccccc3C2)cc1S(=O)(=O)N(C)C | 2.01%
17 | O=C(NCCc1c[nH]c2ccccc12)/C(=C\c1ccco1)NC(=O)c1ccco1 | 13.4%
18 | Nc1ccn(C2CC(O)C(CO)O2)c(=O)n1 (stereo not shown) | 8.11%
19 | COc1ccc(N(CC(=O)NCCSc2ccccc2)S(C)(=O)=O)cc1 | 10.1%
20 | COC(=O)c1cc(C#N)c(OC)nc1C | 16%
21 | N#C/C(=C\c1ccc(-c2ccc(F)cc2)o1)C(=O)Nc1nc(-c2cccs2)cs1 | 11.3%
22 | O=S(=O)(c1cccc(C(F)(F)F)c1)N1CCCC1c1cccnc1 (stereo not shown) | 9.57%
23 | CCC(C)NC(=O)N[C@@H](Cc1ccccc1)C(=O)O (stereo partly shown) | -4.86%
24 | COc1ccccc1/C=C/C1=NC(=C\C=C/c2ccccc2)/C(=O)O1 | 5.3%
25 | CCCCCCc1cc2cc(C(=O)NC)c(=N)oc2cc1O | 6.88%
